{"source": "the RNAGym collection of RNA variant scans (doi:10.7554/elife.90254)", "parents": {"B1": {"name": "LINE1-mini (parent)", "chain": "GGCAGAGCUCAACACAGCGUGGCAAAGUGGCUGUGGCUAGACUGCC"}}, "note": "The source gives no read counts; variants with many changes may rest on few reads.", "data": [{"variants_of": "B1", "assay": "self-cleavage, relative activity (ratio to wild type); higher = more cleavage; in vitro, sequencing; the parent is a self-cleaving ribozyme", "values": [{"variant": "U28C U34C C45U", "self-cleavage": 1.61}, {"variant": "G1U U9G C23A", "self-cleavage": 0.04}, {"variant": "C10U C13U C37A C46A", "self-cleavage": 0.07}, {"variant": "C15G G17U G19A", "self-cleavage": 0}, {"variant": "G5U G7U G21U A24U G44C", "self-cleavage": 0.16}, {"variant": "C3U C10G G17C U34G", "self-cleavage": 0.03}, {"variant": "C3U C8G A26U", "self-cleavage": 0.02}, {"variant": "G2U A4G C8G A12C A16C", "self-cleavage": 0.01}, {"variant": "A4U U9G G19A U38A C45G C46U", "self-cleavage": 0.12}, {"variant": "G17C G21U U38G", "self-cleavage": 0.05}, {"variant": "U28A C31U G40U G44C", "self-cleavage": 0.05}, {"variant": "C13G U20A C42U", "self-cleavage": 0.01}, {"variant": "G5A C10U C18A U28G G36A", "self-cleavage": 0.07}, {"variant": "C8G G22C A24G", "self-cleavage": 0.04}, {"variant": "A6U A14G G21U", "self-cleavage": 0.16}, {"variant": "G1U G5C A26U G33C", "self-cleavage": 0.02}, {"variant": "G1U C18G C23G C46U", "self-cleavage": 0.02}, {"variant": "C10G C18A U20C", "self-cleavage": 0.03}, {"variant": "C3U A16C G29U", "self-cleavage": 0.15}, {"variant": "C10A G19C G30U U43G C45U", "self-cleavage": 0}, {"variant": "G7A G21C U34G", "self-cleavage": 0.04}, {"variant": "C13G G29U G30U", "self-cleavage": 0.1}, {"variant": "C10A C18A G36A G40A", "self-cleavage": 0.03}, {"variant": "G5C C15A C23G C42G C46U", "self-cleavage": 0.01}, {"variant": "C10G A16C G17U U34G C45G", "self-cleavage": 0}, {"variant": "G17C A24C U32G U43A", "self-cleavage": 0.01}, {"variant": "A6U C31G G44U", "self-cleavage": 0.02}, {"variant": "C10U G22A U34C G40U", "self-cleavage": 0.01}, {"variant": "C10A G21C G36C", "self-cleavage": 0.01}, {"variant": "G21U G22A G36U", "self-cleavage": 0.05}, {"variant": "C8U A14C G27A", "self-cleavage": 0.07}, {"variant": "C15U U28C C37A", "self-cleavage": 0.29}, {"variant": "G2A A12C G19U G27C U28C G30A C31A", "self-cleavage": 0.01}, {"variant": "A6C C8G C31A", "self-cleavage": 0.02}, {"variant": "C13G C15U G22U G36C", "self-cleavage": 0.02}, {"variant": "C8G A14G G17A C45A", "self-cleavage": 0.02}, {"variant": "C3G G5C U28A U38G C46U", "self-cleavage": 0.05}, {"variant": "C3A G19U U32A", "self-cleavage": 0.06}, {"variant": "C15G A26C U38A", "self-cleavage": 0.05}, {"variant": "G1U A6G A11G", "self-cleavage": 0.03}, {"variant": "C10G C23G A24C G44A", "self-cleavage": 0.03}, {"variant": "C13U C18U G19U G30U", "self-cleavage": 0.03}, {"variant": "C10G G22C A41U C46A", "self-cleavage": 0}, {"variant": "A4U C18G G27C G36U", "self-cleavage": 1.53}, {"variant": "U28C G36U G44C", "self-cleavage": 0.07}, {"variant": "A11G C37A C45G", "self-cleavage": 0}, {"variant": "C15G A16G C23U A39C G40U", "self-cleavage": 0.01}, {"variant": "C8G C18U C31A G33U", "self-cleavage": 0.01}, {"variant": "A14G G21A G35U G44A", "self-cleavage": 0.04}, {"variant": "U9G C15G U28C G29A", "self-cleavage": 0.01}, {"variant": "G30C U32G C46A", "self-cleavage": 0.06}, {"variant": "G5U C8A G35U", "self-cleavage": 0.4}, {"variant": "C3A C23A G30C C45A", "self-cleavage": 0.79}, {"variant": "G29U U32G U34C", "self-cleavage": 0.01}, {"variant": "C3A U28A U38C", "self-cleavage": 0.07}, {"variant": "G2C A4G A12C G22U G40U", "self-cleavage": 0.05}, {"variant": "G7U A24U G36A", "self-cleavage": 0.09}, {"variant": "G17C A25U G30A", "self-cleavage": 0.23}, {"variant": "A11C C13A C18U C23G", "self-cleavage": 0.02}, {"variant": "G2A G5A C10A G17A", "self-cleavage": 0.05}, {"variant": "G33A G35U G44A", "self-cleavage": 0.01}, {"variant": "C3G A12U G19U G27C C37G", "self-cleavage": 0.01}, {"variant": "C10A A39C C45U", "self-cleavage": 0.07}, {"variant": "U9A C15U U38G", "self-cleavage": 0.16}, {"variant": "G7C C13A C15A A16G C23A C45U", "self-cleavage": 0.33}, {"variant": "A6C A12C G21U A41U", "self-cleavage": 0}, {"variant": "G5A C10U A11C", "self-cleavage": 0.02}, {"variant": "A12G U28C G30U", "self-cleavage": 0.01}, {"variant": "G1U U20C G29A", "self-cleavage": 0.43}, {"variant": "G5U C10A A14U", "self-cleavage": 0.03}, {"variant": "G17C G29U A41C", "self-cleavage": 0.02}, {"variant": "U9G A14C U32G", "self-cleavage": 0.01}, {"variant": "C10A A14G G21A G22U", "self-cleavage": 0.04}, {"variant": "A12G G29C G40A C45U", "self-cleavage": 0.04}, {"variant": "G2U G7A G36U A41G", "self-cleavage": 0.15}, {"variant": "G1U G7C C37G", "self-cleavage": 0.04}, {"variant": "C3A U28G U32A", "self-cleavage": 0.07}, {"variant": "G2A A4G A25C G27U", "self-cleavage": 0.07}, {"variant": "C8U C15G U20A G33A", "self-cleavage": 0.06}, {"variant": "G2C G17A U34A", "self-cleavage": 0.01}, {"variant": "C3A G21U U34G", "self-cleavage": 0.06}, {"variant": "A12U C31U C42U", "self-cleavage": 0.08}, {"variant": "A16C A41C C46U", "self-cleavage": 0.14}, {"variant": "A11G G22C G36A", "self-cleavage": 0.03}, {"variant": "G1C G21A G35C", "self-cleavage": 0.04}, {"variant": "C8A G19C A26C C45A", "self-cleavage": 0}, {"variant": "G1C A4U C23A", "self-cleavage": 0.03}, {"variant": "A14C C31A G36A G40U C46U", "self-cleavage": 0.05}, {"variant": "G1A C18G C46A", "self-cleavage": 0.28}, {"variant": "G7C C23G C45A", "self-cleavage": 0.22}, {"variant": "C3A C10A G29U", "self-cleavage": 0.04}, {"variant": "C13A A16U U28A U43A", "self-cleavage": 0.03}, {"variant": "C8G A16G G22C G29U U43C", "self-cleavage": 0.01}, {"variant": "G5C A12C A24G G33A C42U", "self-cleavage": 0.08}, {"variant": "C13G C18G G19C G36A", "self-cleavage": 0.05}, {"variant": "G7C A14C C15G A24C C37A", "self-cleavage": 0.02}, {"variant": "G27U C37G U43A", "self-cleavage": 0.05}, {"variant": "A26U G40U C45A", "self-cleavage": 0.16}, {"variant": "C3U G22C C31A C37A", "self-cleavage": 0.09}, {"variant": "G1C A11U G27U C42U", "self-cleavage": 0.01}, {"variant": "A24C A41U U43A", "self-cleavage": 0.07}, {"variant": "A11C G33U C37A U43A", "self-cleavage": 0}, {"variant": "A24G A26G C37A A41C", "self-cleavage": 0.02}, {"variant": "A6C U9G C10A", "self-cleavage": 0.02}, {"variant": "A6U A11U G22C A24G C42G", "self-cleavage": 0.01}, {"variant": "C3G C23U G29U C46A", "self-cleavage": 0.37}, {"variant": "G5A U20G C45A", "self-cleavage": 0.13}, {"variant": "C8A A24C G36A", "self-cleavage": 0.26}, {"variant": "A11C G22U A26C C31U", "self-cleavage": 0.02}, {"variant": "A6U G17C A25U A41C C45U", "self-cleavage": 0.1}, {"variant": "C13U A24C G30U", "self-cleavage": 0.06}, {"variant": "C15A G17U U34A", "self-cleavage": 0.09}, {"variant": "G1C G2U C42U", "self-cleavage": 0.02}, {"variant": "C10G A11U C46A", "self-cleavage": 0.01}, {"variant": "G1A A24C C31U G35U", "self-cleavage": 0.05}, {"variant": "C3A G21U G22U G29A U38G C45U", "self-cleavage": 0.03}, {"variant": "G7A U32A C45A", "self-cleavage": 0.05}, {"variant": "C18A G40C U43G", "self-cleavage": 0.1}, {"variant": "A4G G29C G30U", "self-cleavage": 0.15}, {"variant": "C23A U34A G36A C46U", "self-cleavage": 0.01}, {"variant": "A4U G17U G27A", "self-cleavage": 0.24}, {"variant": "C31G C37A U38A", "self-cleavage": 0.04}, {"variant": "G1C G7U A25G", "self-cleavage": 0.03}, {"variant": "G2A C13G C18G", "self-cleavage": 0.13}, {"variant": "U9C C13U C31G", "self-cleavage": 0}, {"variant": "A4C G7U A14U C18A G40A", "self-cleavage": 0.16}, {"variant": "C3G G5A G40C", "self-cleavage": 0.06}, {"variant": "G1A G19A G22C C23U", "self-cleavage": 1.3}, {"variant": "G5U C18U C23A", "self-cleavage": 0.04}, {"variant": "G2A A14C U20G A26G", "self-cleavage": 0.04}, {"variant": "G2C C8A G36C C37A A39U G40C", "self-cleavage": 0.17}, {"variant": "U9A A11G A16C G35C U43A G44C", "self-cleavage": 0}, {"variant": "A14G A16C U28C", "self-cleavage": 0.04}, {"variant": "A11G C13A G30C G33U A39C", "self-cleavage": 0.02}, {"variant": "A12G U34A G40U", "self-cleavage": 0.02}, {"variant": "C8A A16U C23G C37U C46G", "self-cleavage": 0.34}, {"variant": "A16C A39C G40C G44C", "self-cleavage": 0.03}, {"variant": "A11C C31G G35A", "self-cleavage": 0}, {"variant": "G1U G21U A24G", "self-cleavage": 0.64}, {"variant": "A6G C18A U20A", "self-cleavage": 0.1}, {"variant": "A6G C10A C15U C45A", "self-cleavage": 0.02}, {"variant": "U9G A12C U34G G44C", "self-cleavage": 0}, {"variant": "U9A A14U U20A U38A", "self-cleavage": 0.05}, {"variant": "C13A A14G G17C U38C", "self-cleavage": 0.08}, {"variant": "A16U G21C G29A G33A U38A", "self-cleavage": 0.05}, {"variant": "C10U A26G G44A C45A", "self-cleavage": 0.04}, {"variant": "G7U C18G U38A", "self-cleavage": 0.02}, {"variant": "C13A C37A C45A", "self-cleavage": 0.01}, {"variant": "A6G A12G C31U", "self-cleavage": 0.06}, {"variant": "G5A C15A C18G G30A C31G G33A", "self-cleavage": 0.02}, {"variant": "U32G A39U C45A", "self-cleavage": 0.04}, {"variant": "A12C U28A U32C A41G", "self-cleavage": 0.02}, {"variant": "G27U U32C G33C", "self-cleavage": 0.03}, {"variant": "G2A G21U A24C U32C", "self-cleavage": 0.14}, {"variant": "A6C C8G A16C G22A", "self-cleavage": 0.02}, {"variant": "C15U G17U C23U", "self-cleavage": 0.08}, {"variant": "U9G C18A G33A", "self-cleavage": 0.02}, {"variant": "U20A G21C G44A C46U", "self-cleavage": 0.04}, {"variant": "G2U C10G G30U A39G", "self-cleavage": 0.01}, {"variant": "C18G U34A A41G U43C", "self-cleavage": 0}, {"variant": "C3U C10G A26U A41C C45G C46A", "self-cleavage": 0.01}, {"variant": "U28C A41U C42U", "self-cleavage": 0.07}, {"variant": "A6C A14G A24G U32G C42A", "self-cleavage": 0.05}, {"variant": "U9G C13G G21A G22U", "self-cleavage": 0.15}, {"variant": "G2U A11U C31A G44U", "self-cleavage": 0.01}, {"variant": "C8G A16C G36U C37U", "self-cleavage": 0}, {"variant": "A12U U20A A26C", "self-cleavage": 0.61}]}]}
